Out of some 310,000 compounds screened, about 2,200 (0.71%) showed an effect of 50% or more. The effect is printed as a negative number. This is one part of the list.

human ether-à-go-go-related gene (hERG) potassium channel, sequence (Q12809 whole entry, looked up): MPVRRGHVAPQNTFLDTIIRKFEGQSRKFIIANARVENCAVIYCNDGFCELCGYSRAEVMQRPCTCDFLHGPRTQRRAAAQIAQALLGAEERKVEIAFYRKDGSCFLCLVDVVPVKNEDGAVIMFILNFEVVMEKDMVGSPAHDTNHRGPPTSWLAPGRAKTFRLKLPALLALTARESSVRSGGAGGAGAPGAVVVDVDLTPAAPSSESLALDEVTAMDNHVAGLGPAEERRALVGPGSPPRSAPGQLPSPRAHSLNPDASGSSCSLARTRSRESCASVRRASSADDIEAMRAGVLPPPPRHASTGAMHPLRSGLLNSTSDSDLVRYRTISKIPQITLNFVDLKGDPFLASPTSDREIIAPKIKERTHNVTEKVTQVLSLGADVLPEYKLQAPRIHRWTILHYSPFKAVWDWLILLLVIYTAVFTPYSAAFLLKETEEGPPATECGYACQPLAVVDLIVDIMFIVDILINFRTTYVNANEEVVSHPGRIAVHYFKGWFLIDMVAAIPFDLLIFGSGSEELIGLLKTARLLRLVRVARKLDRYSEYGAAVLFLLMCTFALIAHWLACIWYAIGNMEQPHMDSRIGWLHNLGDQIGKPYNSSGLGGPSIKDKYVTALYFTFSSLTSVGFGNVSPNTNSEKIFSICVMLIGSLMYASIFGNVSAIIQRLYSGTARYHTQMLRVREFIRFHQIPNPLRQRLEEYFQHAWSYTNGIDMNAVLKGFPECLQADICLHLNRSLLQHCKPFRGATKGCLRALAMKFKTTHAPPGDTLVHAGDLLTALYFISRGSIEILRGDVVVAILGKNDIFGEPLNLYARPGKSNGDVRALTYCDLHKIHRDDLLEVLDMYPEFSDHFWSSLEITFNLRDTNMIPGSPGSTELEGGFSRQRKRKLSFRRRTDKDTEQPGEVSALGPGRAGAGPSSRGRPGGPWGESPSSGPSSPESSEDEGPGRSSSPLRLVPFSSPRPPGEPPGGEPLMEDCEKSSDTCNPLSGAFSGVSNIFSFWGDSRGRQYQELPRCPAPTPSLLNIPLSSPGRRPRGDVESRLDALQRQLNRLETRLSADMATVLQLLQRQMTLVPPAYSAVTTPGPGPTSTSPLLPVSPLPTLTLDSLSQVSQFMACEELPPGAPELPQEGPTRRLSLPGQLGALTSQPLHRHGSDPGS

The assay has as its target human ether-à-go-go-related gene (hERG) potassium channel (human, UniProt Q12809). The experiment in a line: primary screen, population patch clamp on CHO cells stably expressing hERG.
In the case of `COC(=O)c1cc(CC(=O)c2ccc(O)cc2O)c(C)o1`, the “hERG current change (%, negative = inhibition) at 1uM” value came out at 13.5%.
In the case of `CCn1nc(C)cc1C(=O)N1CCc2c([nH]c3ccccc23)C1c1cc(F)ccc1F` (stereo not shown) it was 13.5%; in that of `COC(=O)c1c(C)[nH]c(C(=O)COC(=O)c2c(C)noc2C)c1C`, 14.6%.
With `Cc1ccc(S(=O)(=O)c2ncccc2[N+](=O)[O-])cc1`, the “hERG current change (%, negative = inhibition) at 1uM” value is listed as -2.76%.
Consider `COc1ccc(Nc2nc(C)cc(C)c2C#N)cc1`, for which the “hERG current change (%, negative = inhibition) at 1uM” value came to 9.8%.
`CNC(=S)N1N=C(c2ccc(C)cc2)CC1c1cc(OC)ccc1OC` (stereo not shown): the “hERG current change (%, negative = inhibition) at 1uM” value is listed as 11.6%.
In the case of `Cc1cc(=O)[nH]c(SCCCOc2ccc(F)cc2)n1` it was 0.957%.
In the case of `CN1C(=O)C2(NCCc3c2[nH]c2ccccc32)c2ccccc21` (stereo not shown), the “hERG current change (%, negative = inhibition) at 1uM” value amounted to 14.5%.
With `COc1ccccc1-n1nc(C)c(-c2ccccc2)c1N`, the “hERG current change (%, negative = inhibition) at 1uM” value came out at 6.76%.
Take `O=c1c(Sc2ccccc2)c(C(F)(F)F)[nH]n1-c1ccccc1`: the “hERG current change (%, negative = inhibition) at 1uM” value was determined as 19.8%.
On to `COc1ccc(-n2c(=O)cc(N3CCc4ccccc43)[nH]c2=O)cc1`, for which the “hERG current change (%, negative = inhibition) at 1uM” value came to 8.59%.
For the compound `O=C(NC(=S)Nc1cccnc1Cl)c1ccc(F)cc1`, the “hERG current change (%, negative = inhibition) at 1uM” value is on record as 11.5%.
On to `COc1ccccc1NC(=S)NC(=O)CCc1ccccc1`, for which the “hERG current change (%, negative = inhibition) at 1uM” value amounted to 1.35%.
Take `N=C1C(c2ccccc2)=C(O)CN1NC(=O)c1ccc(Cl)cc1`: the “hERG current change (%, negative = inhibition) at 1uM” value is 12%.
For `CN(C)C(=O)Oc1ccc(Cl)c2ccccc12`, the “hERG current change (%, negative = inhibition) at 1uM” value was 8.36%.
`O=C(N/N=C/c1ccncc1)C12CC3CC(CC(C3)C1)C2`: the “hERG current change (%, negative = inhibition) at 1uM” value is recorded as 7.3%.
In the case of `COc1cc(-c2noc(CCCC(=O)NC3CCCCC3)n2)cc(OC)c1OC` it was -3.68%.
Take `O=C(NNC(=O)c1cc(-c2ccccc2Cl)nc2ccccc12)c1csc(N2CCOCC2)n1`: the “hERG current change (%, negative = inhibition) at 1uM” value is recorded as 3.93%.
With `Cn1cc(Cl)cc(C(=O)Nc2ccccc2)c1=O`, the “hERG current change (%, negative = inhibition) at 1uM” value is recorded as 10.5%.
In the case of `Cc1nc2c(C(=O)NCc3cccs3)cnn2c(C)c1Cc1ccccc1` it was 16.2%; in that of `Cl.OC(COCc1ccc2c(c1)OCO2)CN1CCC(Cc2ccccc2)CC1` (stereo not shown), -79.4%; in that of `COc1ccc(C)cc1NC(=S)NN1CCN(C)CC1`, 22.7%.
`Nc1nc(-c2ccccc2)c(N=Nc2cccnc2)s1`: the “hERG current change (%, negative = inhibition) at 1uM” value is 17.7%.
`Cc1cc(C)n(/N=C/c2cccc(O)c2)c(=O)c1C(N)=O`: the “hERG current change (%, negative = inhibition) at 1uM” value was 7.25%.
For the compound `COc1cc(CC(=O)OCC(=O)NC2CCCCC2C)cc(OC)c1OC` (stereo not shown), the “hERG current change (%, negative = inhibition) at 1uM” value worked out at 3.45%.
As to `CCC1=C(C)CN(C(=O)NCCc2ccc(S(=O)(=O)NC(=O)NC3CCC(C)CC3)cc2)C1=O` (stereo not shown), the “hERG current change (%, negative = inhibition) at 1uM” value turned out to be 1.24%.
To `O=C(NC(=S)NCc1ccco1)c1ccc(Br)cc1` belongs 10.9%; to `O=C(Nn1cnnc1)C(Sc1ccccc1)c1ccccc1` (stereo not shown), 15%; to `COc1cc(/C=C2/C(=O)N(c3ccc(C)c(C)c3)N=C2C)cc([N+](=O)[O-])c1O`, 12.5%.
`O=C(Oc1ccc(F)cc1C(=O)/C=C/c1cccs1)c1cccc([N+](=O)[O-])c1`: the “hERG current change (%, negative = inhibition) at 1uM” value is given as 10.1%.
`COc1ccc(-c2cncnc2-c2ccc(OC)cc2O)cc1`: the “hERG current change (%, negative = inhibition) at 1uM” value stood at 11.2%.
In the case of `COc1ccc(-c2ccc(SCC(=O)N3c4ccccc4CC3C)nn2)cc1OC` (stereo not shown) it was -5.58%; in that of `COC(=O)c1ccc(NS(=O)(=O)c2cc3c4c(c2)C(C)C(=O)N4CCC3)cc1` (stereo not shown), 2.47%; in that of `COc1ccc(CSCCc2n[nH]c(=S)n2-c2ccccc2)cc1`, 8.77%.
In the case of `CC(NC1=NCCS1)c1ccccc1` (stereo not shown), the “hERG current change (%, negative = inhibition) at 1uM” value is on record as 11.3%.
In the case of `Cc1[nH]n(-c2ccccc2)c(=O)c1N=Nc1cccc(S(=O)(=O)N2CCOCC2)c1`, the “hERG current change (%, negative = inhibition) at 1uM” value was determined as 3.31%.
Consider `CCCc1ccc(C(=O)NNC(=O)c2ccc(Br)cc2)cc1`, for which the “hERG current change (%, negative = inhibition) at 1uM” value was 11.6%.
As to `CCc1ccc(N(CC)c2ncnc3nc[nH]c23)cc1`, the “hERG current change (%, negative = inhibition) at 1uM” value amounted to 16.1%.
Consider `COc1ccc2c(c1)c(=O)c(C(=O)c1ccc(Cl)cc1)cn2CC(=O)Nc1ccc(F)cc1`, for which the “hERG current change (%, negative = inhibition) at 1uM” value came out at 14.8%.
For the compound `O=C1CC(N2CCN(c3ccc(F)cc3)CC2)C(=O)N1Cc1ccccc1` (stereo not shown), the “hERG current change (%, negative = inhibition) at 1uM” value was 5.56%.
To `O=C(NNC(=O)c1ccncc1)Nc1ccccc1` belongs 11.9%.
For `CCCC(=O)NCCCCNC(=O)CCC`, the “hERG current change (%, negative = inhibition) at 1uM” value stood at 4.55%.
Take `Cc1ccc(NCc2ccccc2O)c(C)c1`: the “hERG current change (%, negative = inhibition) at 1uM” value is 18%.
For the compound `Cc1ccc(OCc2cc(C(=O)NC(C)Cc3cnccn3)no2)cc1C` (stereo not shown), the “hERG current change (%, negative = inhibition) at 1uM” value was 9.87%.
Take `Cc1nn(C)c(C)c1Sc1ccc(Br)cc1`: the “hERG current change (%, negative = inhibition) at 1uM” value is given as 16.2%.
For the compound `O=C(CC1C(=O)NCCN1CC1CCCCC1)NCCCN1CCOCC1` (stereo not shown), the “hERG current change (%, negative = inhibition) at 1uM” value is 12.6%.

These data come from PMC4336329 (PLoS ONE, 2015).
